Measurements reported in PubChem BioAssay AID1508624 (National Center for Advancing Translational Sciences (NCATS), 2021).
About 120 (0.25%) of roughly 48,000 compounds were called active. Inconclusive results (about 4%) are left out. Calls come from the whole dose curve; as a rule, active = well fitted activation curve with a large enough effect; inconclusive = small, poorly fitted or top-dose-only effect, or another doubt; inactive = no such curve, though single readings can be large or run the other way. Some of the results follow.

Assay: Primary qHTS for Identification of Small Molecule Activators of Huntingtin-Antisense Promoter Activity; note: nearly all actives have a fitted effect of over 55% in size
Settings: HEK293 HTT-AS promoter firefly luciferase reporter, 24 h; series mostly up to 57.5 µM; activity change, positive = activation: at the top concentration
Outline: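 Firefly luciferase readout (Dual-Glo, 10 min RT) after 24 h, 37 °C compound exposure (final up to 57.5 uM) of HEK293 reporter cells cultured 24 h beforehand; PTC124 at 50 uM final as control inhibitor; activity scaled vehicle 0%, zero RLU -100%.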

SMILES	activity change, positive = activation
O=C(Nc1cccs1)Nc1cc(C(F)(F)F)ccc1Cl	inactive: -20.4%
Cc1ccc(Cl)cc1N1CCN(C(=O)c2cnc(N3CCOCC3)c3ccccc23)CC1	inactive: -48.2%
Fc1ccc(C(c2ccc(F)cc2)N2CCN(CC=Cc3ccccc3)CC2)cc1	inactive: -15.9%
CCc1ccc(NC(=O)CN2CCN(Cc3ccccc3)S2(=O)=O)cc1	inactive: -11.5%
Cc1oc2c(c(C)cc3oc(=O)c(CC(=O)NCCc4ccccc4F)c(C)c32)c1C	inactive: -13.4%
CCOC(=O)C1CCN(c2ncnc3c2c(-c2ccccc2)cn3-c2cccc(C)c2)CC1	inactive: -28.5%
Cc1ccc(Cn2c(C(=O)O)c(CNCc3ccccc3Cl)c3ccc(C)cc32)cc1	inactive: -24.1%
Cc1ccccc1-n1c(SCC(=O)Nc2ccc(Cl)cc2F)nnc1-c1cc2occc2n1C	inactive: -5.48%
Cc1cccc(NC(=O)CCCn2c(C)c3cnn(-c4ccccc4)c(=O)c3c2C)c1C	inactive: -14.6%
CCc1ccc(CNC(=O)c2sc3ncccc3c2-n2c(C)ccc2C)cc1	inactive: -19.7%
Cc1ccc(-c2nc3cc(C(C)C)ccc3o2)cc1NC(=O)c1cc2ccccc2o1	inactive: -28.3%
CCOc1ccccc1CNS(=O)(=O)c1ccc2c(c1)CCCN2C(C)=O	inactive: -19.1%
O=C(Cn1ccn(-c2ccc(F)c(F)c2)c(=O)c1=O)Nc1ccccc1F	inactive: -0.645%
Cc1ccc(OCC(=O)Nc2ccc(S(=O)(=O)Nc3cc(C)nc(C)n3)cc2)c(Br)c1	inactive: -24.5%
Cc1ccc(C)n1-c1nnc(N2CCCC(C(=O)NCc3ccc(Cl)cc3)C2)s1 (configuration not stated)	inactive: -28.2%
COc1ccc(C2=CC(c3ccc(F)cc3)n3ncc(C(=O)Nc4ccc(C)cc4)c3N2)cc1 (configuration not stated)	inactive: -18%
Cc1ccc(CN2CCc3nc(N4CCN(c5ncccn5)CC4)ncc3C2)cc1	inactive: -33.9%
COc1cccc(NC(=O)CSc2nc3c(oc4ccccc43)c(=O)n2Cc2ccco2)c1	inactive: -27.1%
O=C(CCSc1nc(-c2ccco2)cc(C(F)(F)F)n1)Nc1cccc(O)c1	inactive: -16.7%
O=C(Nc1ccc2oc(-c3cccnc3)nc2c1)c1cccc(Br)c1	inactive: 5.74%
Cc1ccc(N(CC(=O)NCCc2ccc(Cl)cc2)S(=O)(=O)N(C)C)cc1	inactive: -24.4%
Fc1ccc(-n2ncc3c(NCCCN4CCOCC4)ncnc32)cc1	inactive: 6.81%
CCOC(=O)c1c(NC(=O)CSc2cn(CCNC(=O)c3ccccc3F)c3ccccc23)sc2c1CCC2	inactive: -38.2%

SMILES	activity change, positive = activation
O=C(Nc1ccc2nc(SCC(=O)N3CCCc4ccccc43)sc2c1)c1cccc(F)c1	inactive: -37.9%
COC(=O)c1cc(S(=O)(=O)NCC2CCN(Cc3ccc(F)cc3)CC2)cn1C	inactive: -11.9%
COc1cccc(CNC(=O)c2ccc(CSc3nc4ccncc4n3Cc3cccc(C)c3)cc2)c1	inactive: -25.3%
Cc1ccc2c(c1)N(CCC(=O)NCc1ccc(F)cc1)C(=O)CO2	inactive: -17.1%
CCOCCc1nn2c(=O)cc(COC(=O)CNC(=O)c3ccc(C(C)(C)C)cc3)nc2s1	inactive: -13.8%
COc1cc(NC(=O)CCc2c(C)nn(-c3ccc4nncn4n3)c2C)cc(OC)c1OC	inactive: -9.92%
Cc1ccc(Cl)cc1N1CCN(S(=O)(=O)c2ccc3[nH]c4c(c3c2)CCCCC4)CC1	inactive: -28.4%
Cc1cccc(CSc2ncc(CO)n2Cc2ccc(F)cc2)c1	inactive: -18.7%
Cc1ccc2c(c1)-c1nc(-c3ccc(Cl)cc3)cc(-c3coc4ccccc4c3=O)c1CO2	inactive: -13.9%
CCCSc1ncc(Cl)c(C(=O)Nc2ccc(S(=O)(=O)Nc3ncccn3)cc2)n1	inactive: -5.92%
COc1ccc(NC(=O)CSc2ncc3c(n2)-c2cc(Cl)ccc2N(Cc2ccccc2F)S3(=O)=O)cc1	inactive: -7.35%
Cc1cc(C)c2c(=O)cc(C(=O)Nc3sc4c(c3C(=O)NCc3ccccc3)CCCC4)oc2c1	inactive: -10.4%
COc1ccc(C2=NS(=O)(=O)N(C)C(C(=O)Nc3cc(C)ccc3O)=C2)cc1OC	inactive: -25.3%
Cc1nc(N2C(=O)c3oc4ccccc4c(=O)c3C2c2ccccc2F)sc1C (configuration not stated)	inactive: -3.98% [at 11.5 µM, percent change from vehicle, -100% = no light]
COc1cccc(N2CCN(S(=O)(=O)c3cc(Br)cc4c3N(C(=O)C3CC3)CC4)CC2)c1	inactive: -7.78%
Cc1cccc(N2C(=O)CSC23C(=O)N(Cc2cccc(F)c2)c2ccccc23)c1 (configuration not stated)	inactive: -34.5%
CN1CCN(C(CNC(=O)C(=O)Nc2ccccc2)c2ccc3c(c2)OCO3)CC1 (configuration not stated)	inactive: -4.86%
CCOC(=O)c1c(C)n(-c2ccccc2)c2ccc(OC(=O)c3ccccc3)cc12	inactive: -70.7%
Cc1cccc(-c2noc(CN(C(=O)COc3ccc(C(C)C)cc3)C(C)C)n2)c1	inactive: -30.4%
Cc1ccc(C)c(CSc2nc3ncccc3[nH]2)c1	inactive: -11.8%
Cc1c(CC(=O)NCCc2ccccc2F)c(=O)oc2c(C)c3occ(C(C)(C)C)c3cc12	inactive: -29.9%
COc1cccc(N2CCN(C(=O)c3ccc4c(=O)n(CCc5ccccc5)c(=O)[nH]c4c3)CC2)c1	inactive: -26.2%
COc1ccc(NC(=O)CSc2cn(CC(=O)N3CCOCC3)c3ccccc23)cc1OC	inactive: -7.15%

SMILES	activity change, positive = activation
COc1ccccc1CNS(=O)(=O)c1cc(C(=O)Nc2cccc(C(F)(F)F)c2)ccc1F	inactive: -46.9%
CC(C)COC(=O)/C(C#N)=C\c1ccc(-c2ccccc2Cl)o1	inactive: 30.9%
Cc1cccc(OCC(=O)Nc2c(C)ccc3nsnc23)c1C	inactive: 0.0573%
COc1ccc(-c2cc(C(=O)NCc3cc(OC)c(OC)c(OC)c3)[nH]n2)cc1	inactive: -11.3%
CCc1ccc(S(=O)(=O)c2nnn3c2nc(N2CCC(C)CC2)c2cc(Cl)ccc23)cc1	inactive: 0%
Cc1ccc(C)c(NC(=O)CCN2C(=O)c3ccccc3Sc3ncccc32)c1	inactive: -17%
O=C(CSc1ncc(S(=O)(=O)c2ccc(Br)cc2)c(=O)[nH]1)NCc1ccc(Cl)cc1	inactive: -6.54%
O=C(Nc1ccccc1)C(Cc1ccccc1)N1Cc2ccccc2C1=O (configuration not stated)	inactive: 0.0452%
CCOc1ccc(-c2nc(CSCC(=O)N3CCN(c4cccc(C(F)(F)F)c4)CC3)c(C)o2)cc1	inactive: -51.8%
Cn1c(C(=O)NCc2cccc(Cl)c2)cc2oc3ccccc3c21	inactive: -11.1%
CC(=O)c1ccc(N2CCN(C(=O)CCCn3c(=O)[nH]c4ccsc4c3=O)CC2)cc1	inactive: -8.29%
C=C(C)[C@@H]1CC[C@]2(C(=O)O)CC[C@]3(C)[C@H](CC[C@@H]4[C@@]5(C)CC[C@H](O)C(C)(C)[C@@H]5CC[C@]43C)[C@@H]12	inactive: -16.5%
COCCCNC(=O)c1ccc(Cn2c(=O)c3cccn3c3cccnc32)cc1	inactive: -29.5%
CCC(=C(CC)c1ccc(O)cc1)c1ccc(O)cc1	inactive: -47%
COc1ccccc1CCNC(=O)C1CCN(c2nnc(C)c3c(C)n(-c4ccc(C)cc4)nc23)CC1	inactive: -13.5%
O=[N+]([O-])c1ccc(O)c(-c2ccnc3cc(-c4ccccc4)nn23)c1	inactive: -78.4%
Cc1ccc(Cn2c(CN3CCN(c4cccc(Cl)c4)CC3)nc3c2c(=O)n(C)c(=O)n3C)cc1	inactive: -8.54%
Cc1ccc(CNC(=O)Cn2c3ncccc3c(=O)n2-c2ccc(C)cc2)cc1	inactive: -8.54%
CC(C)c1cc(-c2nc(-c3cccc(Cl)c3)no2)n[nH]1	inactive: 25.1%
COc1ccccc1N1CCN(c2cc(C)nc3nncn23)CC1	inactive: -22.5%
COc1ccc(C)c2sc(N3CCN(C(=O)c4ccco4)CC3)nc12	inactive: -27.2%
CCOc1ccc(CNC(=O)CSc2c3c(nc4ccc(Cl)cc24)CCCC3)cc1	inactive: -6.55%
Cc1nn2c(=O)cc(COC(=O)c3ccc(NC(=O)COc4ccccc4F)cc3)nc2s1	inactive: -10.9%

SMILES	activity change, positive = activation
Cc1nc2c(c(C)nn2C(C)(C)C)c(C)c1CCC(=O)Nc1ccc(F)cc1	inactive: -19.5%
Cc1ccc2oc(C(=O)Nc3sc4c(c3C(=O)NCc3ccco3)CCC4)cc(=O)c2c1	inactive: 7.4% [at 11.5 µM, percent change from vehicle, -100% = no light]
CCSc1nc2ccccc2c(OCc2cc(C(=O)OC)ccc2OC)c1C(=O)OC	inactive: -40.9%
COC(=O)c1c(C)sc(-c2c(-c3ccc(OC)c(F)c3)[nH]c3c2c(=O)n(C)c(=O)n3C)c1O	inactive: -3.51%
CC(C)C(=O)Nc1nnc(S(=O)(=O)N2c3ccccc3CC2C)s1 (configuration not stated)	inactive: -7.74%
CCCOc1cccc(C(=O)Nc2cccc(NC(=O)c3ccc(Cl)cc3Cl)c2)c1	inactive: -1.47%
Cc1ccc(C(C)C)c(OCC(=O)Nc2ccc(O)c(-c3nc4cc(Cl)ccc4o3)c2)c1	inactive: -3.76%
CCOC(=O)c1c(-c2ccccc2)oc2ccc(OCc3cccc(Br)c3)cc12	inactive: -20.9%
O=C(Cn1cc(C(=O)c2cccs2)c2ccccc21)Nc1ccc(Br)cc1	inactive: -45.4%
O=C1CCSC2(C(=O)N(Cc3ccc(F)cc3)c3ccccc32)N1c1cccc(F)c1 (configuration not stated)	inactive: -24.4%
CCN(c1cccc(C)c1)S(=O)(=O)c1c(C)nc2sc(C)cn2c1=O	inactive: -23.6%
COc1cccc(C(c2sc3nc(-c4ccco4)nn3c2O)N2CCN(C)CC2)c1 (configuration not stated)	inactive: -0.757%
COc1ccc(CNC(=O)CN(C)S(=O)(=O)c2ccc3c(c2)c(=O)n(C)c(=O)n3C)cc1	inactive: -11.8%
CCS(=O)(=O)Nc1ccc(-c2cn3c(C)csc3n2)cc1	inactive: -49.3%
COc1ccc(C(=O)Oc2cc(-c3ccc(OC)c(OC)c3)cc(=O)c3c(C)oc(C)c23)cc1	inactive: -18.5%
NC(N)=Nc1nc(CSCCC(N)=NS(N)(=O)=O)cs1	inactive: -26.7%
CSc1nn(CC(=O)Nc2cc(C)ccc2C)c(N)c1S(=O)(=O)c1ccccc1	inactive: -38.9%
Cc1ccc2c(=O)cc(C(=O)Nc3c(C(=O)c4ccc(F)cc4)oc4ccccc34)oc2c1C	inactive: -3.07%
COc1ccc(NC(=O)CC(C)S(=O)(=O)c2cc3c(cc2C)NC(=O)CO3)cc1OC (configuration not stated)	inactive: -3.97%
O=C(Nc1nnc(S(=O)(=O)N2CCCCCC2)s1)c1ccc(Cl)cc1	inactive: -19.4%
COc1ccccc1CNC(=O)C1CCN(c2nnc(C)c3c(C)n(-c4ccccc4)nc23)CC1	inactive: -7.89%
CC(C)CC(=O)OCc1cc(=O)n2nc(C3CCCCC3)sc2n1	inactive: 17%
Cc1ccc(NC(=O)CN2C(=O)CC(c3ccc(C)c(C)c3)=Nc3ccccc32)cc1	inactive: 4.74%
